Experiments:
Details in all cases: 72 h
[1] = test system: Caco-2; experiment: cell viability relative to DMSO; higher = less toxic
[2] = test system: Calu-3; experiment: as above
[3] = test system: HepG2; experiment: as above
[4] = test system: U2OS; experiment: as above
[5] = test system: Vero E6; experiment: as above
[6] = test system: Caco-2; experiment: relative viability EC50 (midpoint between 100% and the lowest measured viability); higher = less toxic
[7] = test system: Calu-3; experiment: as above
[8] = test system: HepG2; experiment: as above
[9] = test system: U2OS; experiment: as above
[10] = test system: Vero E6; experiment: as above
[11] = test system: Caco-2; experiment: drug sensitivity score (DSS) for viability; higher = more toxic; extreme values may be limits of the assay
[12] = test system: Calu-3; experiment: as above
[13] = test system: HepG2; experiment: as above
[14] = test system: U2OS; experiment: as above
[15] = test system: Vero E6; experiment: as above

CCC(C)C(C(=O)OCC[N+](C)(CC)CC)c1ccccc1 (stereo not given) [valethamate]
cell viability [%]
Details | [1] | [2] | [3] | [4] | [5]
1 nM | 96.7 | 90.5 | 104 | 99.2 | 99.3
10 nM | 93.2 | 99 | 91 | 93.5 | 99.1
100 nM | 101 | 103 | 108 | 100 | 104
1000 nM | 105 | 103 | 87 | 99 | 106
10000 nM | 95.2 | 102 | 95.8 | 108 | 94.4

Details | drug sensitivity score | relative viability EC50 [µM]
[6] | – | > 10
[7] | – | > 10
[8] | – | > 10
[9] | – | > 10
[10] | – | > 10
[11] | 0 | –
[12] | 0 | –
[13] | 0 | –
[14] | 0 | –
[15] | 0 | –
